According to PMC11024157:
Numbering of substitutions follows the chain as printed. Results are given in words; binding and its absence hold for the method and conditions named. In cells and extracts the contact can be indirect. Some results given as binding are weak or reduced against the parent protein; the word gives no strength. For some assays here: Where a sequence is shown, tags or fusion partners need not be part of it. One block for each molecule: values may come before it.

Amino acid sequences for entries named in this document (tags omitted). A change or cut given only in a name is not applied to a line headed by its entry.
UniProt O43791: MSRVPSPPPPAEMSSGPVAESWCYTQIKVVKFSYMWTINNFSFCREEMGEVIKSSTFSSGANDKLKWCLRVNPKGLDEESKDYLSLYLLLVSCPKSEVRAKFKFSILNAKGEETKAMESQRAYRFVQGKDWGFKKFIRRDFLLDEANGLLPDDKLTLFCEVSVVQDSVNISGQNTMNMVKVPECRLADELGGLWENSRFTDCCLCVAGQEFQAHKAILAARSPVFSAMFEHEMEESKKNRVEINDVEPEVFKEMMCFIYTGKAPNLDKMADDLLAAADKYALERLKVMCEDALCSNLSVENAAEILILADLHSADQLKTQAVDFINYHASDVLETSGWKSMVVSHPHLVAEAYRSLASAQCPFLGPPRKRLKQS
UniProt Q13619: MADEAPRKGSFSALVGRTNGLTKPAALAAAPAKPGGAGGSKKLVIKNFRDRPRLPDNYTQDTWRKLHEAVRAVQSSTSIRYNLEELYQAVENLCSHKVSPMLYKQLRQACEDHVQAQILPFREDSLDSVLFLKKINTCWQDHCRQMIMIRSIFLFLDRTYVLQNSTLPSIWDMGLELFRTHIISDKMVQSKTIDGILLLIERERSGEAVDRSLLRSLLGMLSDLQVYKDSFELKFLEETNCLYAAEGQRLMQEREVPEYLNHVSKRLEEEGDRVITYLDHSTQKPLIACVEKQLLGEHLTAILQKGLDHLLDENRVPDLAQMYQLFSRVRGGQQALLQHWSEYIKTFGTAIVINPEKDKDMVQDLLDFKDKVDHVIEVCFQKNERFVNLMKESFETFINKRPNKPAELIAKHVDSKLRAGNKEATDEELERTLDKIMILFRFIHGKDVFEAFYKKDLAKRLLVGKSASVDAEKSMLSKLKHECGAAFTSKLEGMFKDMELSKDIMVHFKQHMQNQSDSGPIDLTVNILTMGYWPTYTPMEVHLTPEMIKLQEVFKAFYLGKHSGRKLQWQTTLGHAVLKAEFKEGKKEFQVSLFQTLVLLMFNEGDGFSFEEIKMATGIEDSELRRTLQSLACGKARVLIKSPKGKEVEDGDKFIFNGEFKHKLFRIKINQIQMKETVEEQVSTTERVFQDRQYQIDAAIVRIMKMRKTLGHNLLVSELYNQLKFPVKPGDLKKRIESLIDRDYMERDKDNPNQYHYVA
UniProt O96017: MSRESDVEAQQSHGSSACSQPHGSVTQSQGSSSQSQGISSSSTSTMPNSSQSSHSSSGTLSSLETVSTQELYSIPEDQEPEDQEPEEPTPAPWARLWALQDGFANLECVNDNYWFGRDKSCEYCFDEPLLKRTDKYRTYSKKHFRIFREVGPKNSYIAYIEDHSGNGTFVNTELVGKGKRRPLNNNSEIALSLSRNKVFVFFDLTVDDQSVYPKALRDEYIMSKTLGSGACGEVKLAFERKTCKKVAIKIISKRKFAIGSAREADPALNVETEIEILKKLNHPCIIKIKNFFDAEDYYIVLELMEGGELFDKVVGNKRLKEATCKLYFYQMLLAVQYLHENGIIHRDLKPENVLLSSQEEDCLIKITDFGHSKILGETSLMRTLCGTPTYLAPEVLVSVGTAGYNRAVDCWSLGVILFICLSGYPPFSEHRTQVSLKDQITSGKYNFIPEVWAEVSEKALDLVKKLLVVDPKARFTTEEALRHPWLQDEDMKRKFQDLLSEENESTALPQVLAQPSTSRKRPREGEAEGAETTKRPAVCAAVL
UniProt Q14145: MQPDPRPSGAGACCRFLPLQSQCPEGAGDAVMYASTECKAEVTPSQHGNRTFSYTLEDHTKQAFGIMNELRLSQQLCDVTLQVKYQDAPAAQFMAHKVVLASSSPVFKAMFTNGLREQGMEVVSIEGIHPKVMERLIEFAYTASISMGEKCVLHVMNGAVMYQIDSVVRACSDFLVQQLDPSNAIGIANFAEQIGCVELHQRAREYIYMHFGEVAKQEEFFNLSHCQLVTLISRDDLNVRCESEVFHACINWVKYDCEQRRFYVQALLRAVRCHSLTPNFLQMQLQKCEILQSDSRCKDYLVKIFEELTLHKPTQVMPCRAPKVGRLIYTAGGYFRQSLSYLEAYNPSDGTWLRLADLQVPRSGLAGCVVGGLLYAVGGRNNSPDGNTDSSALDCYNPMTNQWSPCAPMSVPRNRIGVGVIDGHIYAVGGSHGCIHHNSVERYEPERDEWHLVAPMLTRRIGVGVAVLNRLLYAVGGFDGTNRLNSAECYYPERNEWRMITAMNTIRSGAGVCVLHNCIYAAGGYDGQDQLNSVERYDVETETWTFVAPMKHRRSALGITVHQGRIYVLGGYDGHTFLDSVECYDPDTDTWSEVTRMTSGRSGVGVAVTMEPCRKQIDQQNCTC

Assays:
Xp/His-ELK3 [1] = target: T1, Xp/His-ELK3 (UniProt P41970); test: co-IP; lysates of HEK293T cells transiently transfected with the indicated plasmids, most panels treated with MG132 (10 μM) for 4 h; docetaxel (300 nM) in Fig. 7d; IP and WB (Fig. 2a: IP with Xpress antibody, WB with Myc antibody)
T1 sequence: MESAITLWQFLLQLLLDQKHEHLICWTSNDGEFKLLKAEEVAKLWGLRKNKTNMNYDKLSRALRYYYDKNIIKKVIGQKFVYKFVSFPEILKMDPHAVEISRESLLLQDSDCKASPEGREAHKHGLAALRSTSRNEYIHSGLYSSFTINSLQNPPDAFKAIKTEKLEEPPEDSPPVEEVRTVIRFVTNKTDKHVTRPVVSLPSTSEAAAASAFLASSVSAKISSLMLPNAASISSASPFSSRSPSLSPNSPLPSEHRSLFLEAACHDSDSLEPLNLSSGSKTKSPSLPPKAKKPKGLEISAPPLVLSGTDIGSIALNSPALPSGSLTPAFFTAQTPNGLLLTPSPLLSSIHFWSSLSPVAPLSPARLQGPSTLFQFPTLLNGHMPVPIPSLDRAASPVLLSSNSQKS

[2] = target: T2, ELK3 (endogenous) (human (endogenous in HeLa)) (UniProt P41970); test: co-IP; endogenous proteins; lysates of HeLa cells treated with MG132 (10 μM) for 8 h; IP and WB
T2 sequence: T1 sequence

Xp/His-ELK3 [3] = target: T1, Xp/His-ELK3; test: condition: only cell lysates treated with λ-phosphatase; co-IP; lysates of transfected HEK293T cells treated with λ-phosphatase before IP and WB
ELK3-ΔDeg2 = target: T3, ELK3-ΔDeg2 (UniProt P41970); test: co-IP; lysates of HEK293T cells transiently transfected with the indicated plasmids, most panels treated with MG132 (10 μM) for 4 h; docetaxel (300 nM) in Fig. 7d; IP and WB (Fig. 2a: IP with Xpress antibody, WB with Myc antibody)
T3 sequence: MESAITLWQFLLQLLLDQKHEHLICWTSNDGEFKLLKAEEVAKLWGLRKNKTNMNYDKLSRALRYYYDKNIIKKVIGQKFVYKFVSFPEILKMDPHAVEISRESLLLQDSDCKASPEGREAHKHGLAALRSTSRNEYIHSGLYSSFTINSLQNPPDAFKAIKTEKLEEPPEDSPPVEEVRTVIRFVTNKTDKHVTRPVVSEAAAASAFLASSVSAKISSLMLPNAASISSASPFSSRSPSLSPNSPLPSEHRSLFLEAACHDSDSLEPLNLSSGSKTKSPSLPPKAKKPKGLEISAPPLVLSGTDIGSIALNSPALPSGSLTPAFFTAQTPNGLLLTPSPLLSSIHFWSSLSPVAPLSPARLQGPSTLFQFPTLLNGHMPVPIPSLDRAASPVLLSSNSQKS

ELK4 = target: T4, ELK4 (UniProt P28324); test: as above
T4 sequence: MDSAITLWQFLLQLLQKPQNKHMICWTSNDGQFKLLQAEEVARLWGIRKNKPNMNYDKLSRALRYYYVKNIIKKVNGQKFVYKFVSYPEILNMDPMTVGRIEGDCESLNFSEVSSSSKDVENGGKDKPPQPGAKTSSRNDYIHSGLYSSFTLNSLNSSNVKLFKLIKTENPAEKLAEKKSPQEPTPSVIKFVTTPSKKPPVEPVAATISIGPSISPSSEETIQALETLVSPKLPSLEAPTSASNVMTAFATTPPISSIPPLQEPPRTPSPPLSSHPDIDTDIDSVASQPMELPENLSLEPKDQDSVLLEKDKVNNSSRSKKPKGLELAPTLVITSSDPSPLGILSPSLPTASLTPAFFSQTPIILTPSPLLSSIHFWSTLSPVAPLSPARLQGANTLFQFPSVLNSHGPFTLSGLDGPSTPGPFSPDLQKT

ELK1 = target: T5, ELK1 (UniProt P19419); test: as above
T5 sequence: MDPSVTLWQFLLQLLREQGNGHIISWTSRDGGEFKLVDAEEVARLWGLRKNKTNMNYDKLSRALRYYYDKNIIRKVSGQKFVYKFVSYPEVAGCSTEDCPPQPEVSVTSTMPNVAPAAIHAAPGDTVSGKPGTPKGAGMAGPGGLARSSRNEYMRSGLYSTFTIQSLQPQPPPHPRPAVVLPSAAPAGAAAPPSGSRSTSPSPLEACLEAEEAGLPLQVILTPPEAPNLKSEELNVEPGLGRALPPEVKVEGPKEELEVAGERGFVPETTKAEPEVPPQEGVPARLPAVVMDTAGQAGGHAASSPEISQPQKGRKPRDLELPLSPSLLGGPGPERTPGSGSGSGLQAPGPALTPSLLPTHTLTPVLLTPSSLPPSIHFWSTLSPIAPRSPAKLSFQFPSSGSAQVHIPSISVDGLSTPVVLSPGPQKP

His-ELK3-S133A = target: T6, His-ELK3-S133A (UniProt P41970); test: as above
T6 sequence: T1 sequence with S133A

His-ELK3-S133D = target: T7, His-ELK3-S133D (UniProt P41970); test: as above
T7 sequence: T1 sequence with S133D

Xp/His-ELK3 [4] = target: T1, Xp/His-ELK3; test: condition: only cells treated with 5 μM AZD7762 for 12 h; co-IP; transfected HEK293T cells treated with 5 μM AZD7762 (CHK1/2 inhibitor) for 12 h and MG132 (10 μM) for 4 h; IP and WB
Xp/His-ELK3 [5] = target: T1, Xp/His-ELK3; test: co-IP; lysates of HEK293T cells transiently transfected with the indicated plasmids, most panels treated with MG132 (10 μM) for 4 h; docetaxel (300 nM) in Fig. 7d; IP and WB (Fig. 2a: IP with Xpress antibody, WB with Myc antibody); remark: listed apart in the source
[6] = target: GST-SPOP (bacterially expressed) (UniProt O43791); test: pull-down; partially purified bacterial SPOP (GST-SPOP in the text, His-SPOP in the legend) with lysate of HEK293T cells transfected with His-ELK3 plasmid; pulldown and WB; only the target purified

Molecule: CUL 4 A (from UniProt Q13619 1-759)
binding (Xp/His-ELK3 [1]): no binding

Molecule: Myc-SPOP (from UniProt O43791 1-374)
binding (Xp/His-ELK3 [1]): binds

Molecule: SPOP (transfected, tag not told for these panels) (from UniProt O43791 1-374)
binding (Xp/His-ELK3 [3]): no binding
binding (ELK3-ΔDeg2): binds
binding (ELK4): no binding
binding (ELK1): no binding
binding (His-ELK3-S133A): no binding
binding (His-ELK3-S133D): binds
binding (Xp/His-ELK3 [1]): binds
binding (Xp/His-ELK3 [4]): no binding

Molecule: SPOP-F133V (from UniProt O43791 1-374)
binding (Xp/His-ELK3 [1]): no binding

Molecule: SPOP-W131G (from UniProt O43791 1-374)
binding (Xp/His-ELK3 [1]): no binding

Molecule: SPOP-Y87C (from UniProt O43791 1-374)
binding (Xp/His-ELK3 [1]): no binding

B1: KLHL25 (protein, UniProt Q9H0H3 1-589)
chain: MSVSVHETRKSRSSTGSMNVTLFHKASHPDCVLAHLNTLRKHCMFTDVTLWAGDRAFPCHRAVLAASSRYFEAMFSHGLRESRDDTVNFQDNLHPEVLELLLDFAYSSRIAINEENAESLLEAGDMLQFHDVRDAAAEFLEKNLFPSNCLGMMLLSDAHQCRRLYEFSWRMCLVHFETVRQSEDFNSLSKDTLLDLISSDELETEDERVVFEAILQWVKHDLEPRKVHLPELLRSVRLALLPSDCLQEAVSSEALLMADERTKLIMDEALRCKTRILQNDGVVTSPCARPRKAGHTLLILGGQTFMCDKIYQVDHKAKEIIPKADLPSPRKEFSASAIGCKVYVTGGRGSENGVSKDVWVYDTVHEEWSKAAPMLIARFGHGSAELENCLYVVGGHTSLAGVFPASPSVSLKQVEKYDPGANKWMMVAPLRDGVSNAAVVSAKLKLFVFGGTSIHRDMVSKVQCYDPSENRWTIKAECPQPWRYTAAAVLGSQIFIMGGDTEFTAASAYRFDCETNQWTRIGDMTAKRMSCHALASGNKLYVVGGYFGTQRCKTLDCYDPTSDTWNCITTVPYSLIPTAFVSTWKHLPA
binding (Xp/His-ELK3 [5]): no binding

B2: Xp/His-ELK3 (protein, UniProt P41970 1-407)
chain: T1 sequence
binding [6]: binds

B3: KLHL2 (protein, UniProt O95198 1-593)
chain: METPPLPPACTKQGHQKPLDSKDDNTEKHCPVTVNPWHMKKAFKVMNELRSQNLLCDVTIVAEDMEISAHRVVLAACSPYFHAMFTGEMSESRAKRVRIKEVDGWTLRMLIDYVYTAEIQVTEENVQVLLPAAGLLQLQDVKKTCCEFLESQLHPVNCLGIRAFADMHACTDLLNKANTYAEQHFADVVLSEEFLNLGIEQVCSLISSDKLTISSEEKVFEAVIAWVNHDKDVRQEFMARLMEHVRLPLLPREYLVQRVEEEALVKNSSACKDYLIEAMKYHLLPTEQRILMKSVRTRLRTPMNLPKLMVVVGGQAPKAIRSVECYDFKEERWHQVAELPSRRCRAGMVYMAGLVFAVGGFNGSLRVRTVDSYDPVKDQWTSVANMRDRRSTLGAAVLNGLLYAVGGFDGSTGLSSVEAYNIKSNEWFHVAPMNTRRSSVGVGVVGGLLYAVGGYDGASRQCLSTVECYNATTNEWTYIAEMSTRRSGAGVGVLNNLLYAVGGHDGPLVRKSVEVYDPTTNAWRQVADMNMCRRNAGVCAVNGLLYVVGGDDGSCNLASVEYYNPTTDKWTVVSSCMSTGRSYAGVTVIDKPL
binding (Xp/His-ELK3 [5]): no binding

Continued, values first:

binding (Xp/His-ELK3 [1]): binds
Molecule: CHK2 (from UniProt O96017 1-543) (enzyme)

binding (Xp/His-ELK3 [1]): binds
Molecule: HA-SPOP-wt (from UniProt O43791 1-374)

binding (Xp/His-ELK3 [1]): no binding
Molecule: Kelch-like ECH-associated protein 1 (from UniProt Q14145 1-624)

binding [2]: binds
Molecule: SPOP (endogenous) (from UniProt O43791 1-374)
